The source of these data is publication PMC4336329 (PLoS ONE, 2015).

Each structure is given as a SMILES string. Among all 310,000 compounds or so, about 14,000 (4.5%) showed an effect of 50% or more. The effect is printed as a negative number. The list shows a part of the results.
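Also: peak tail current of the secondary pulse compared with the same well before compound.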

Sequence of human ether-à-go-go-related gene (hERG) potassium channel (Q12809 whole entry, looked up): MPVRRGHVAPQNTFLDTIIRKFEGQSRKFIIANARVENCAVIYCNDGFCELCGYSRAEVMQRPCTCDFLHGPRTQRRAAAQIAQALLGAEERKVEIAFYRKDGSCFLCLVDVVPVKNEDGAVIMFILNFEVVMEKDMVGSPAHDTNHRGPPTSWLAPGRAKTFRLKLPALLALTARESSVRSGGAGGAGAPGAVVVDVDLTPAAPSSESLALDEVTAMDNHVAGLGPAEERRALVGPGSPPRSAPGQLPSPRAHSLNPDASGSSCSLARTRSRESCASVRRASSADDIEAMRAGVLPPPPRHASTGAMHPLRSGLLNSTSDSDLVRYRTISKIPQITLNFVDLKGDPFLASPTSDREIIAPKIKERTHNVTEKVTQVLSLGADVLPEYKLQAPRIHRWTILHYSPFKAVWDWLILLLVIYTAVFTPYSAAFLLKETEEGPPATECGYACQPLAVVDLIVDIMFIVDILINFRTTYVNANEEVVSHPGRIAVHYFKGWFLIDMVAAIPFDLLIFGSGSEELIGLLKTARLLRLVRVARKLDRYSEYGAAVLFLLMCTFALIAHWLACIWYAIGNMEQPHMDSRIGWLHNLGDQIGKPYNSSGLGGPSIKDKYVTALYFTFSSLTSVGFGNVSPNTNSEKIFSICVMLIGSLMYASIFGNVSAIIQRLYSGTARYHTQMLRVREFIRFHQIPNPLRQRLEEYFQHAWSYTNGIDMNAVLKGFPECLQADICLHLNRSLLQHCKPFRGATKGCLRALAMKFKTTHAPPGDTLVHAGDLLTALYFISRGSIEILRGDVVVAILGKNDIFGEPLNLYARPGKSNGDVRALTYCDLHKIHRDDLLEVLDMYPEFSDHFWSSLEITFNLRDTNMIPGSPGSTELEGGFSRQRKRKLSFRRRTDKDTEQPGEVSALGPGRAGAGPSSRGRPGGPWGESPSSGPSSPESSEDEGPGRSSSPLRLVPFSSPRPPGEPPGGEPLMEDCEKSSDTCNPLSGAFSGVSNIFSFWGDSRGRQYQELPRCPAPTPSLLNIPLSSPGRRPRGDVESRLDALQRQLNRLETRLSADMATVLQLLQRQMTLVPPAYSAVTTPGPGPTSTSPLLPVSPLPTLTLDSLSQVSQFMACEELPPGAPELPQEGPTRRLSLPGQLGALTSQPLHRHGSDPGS

This experiment concerns the target human ether-à-go-go-related gene (hERG) potassium channel (human, UniProt Q12809). Briefly: primary screen, population patch clamp on CHO cells stably expressing hERG.
For `c1ccc(-c2csc3ncnc(NCc4ccccn4)c23)cc1`, the “hERG current change (%, negative = inhibition) at 10uM” value was -20.7%.
The figure for `CN1CCC(=NNC(=O)c2ccc(N(Cc3ccc(Cl)cc3)S(C)(=O)=O)cc2)CC1` is -38%; for `COCCNC(=O)C(c1ccc(C)o1)N(C(=O)c1snc(C(N)=O)c1N)c1cccc(C)c1` (stereo not drawn) it is -23.4%.
Under `C=CCNC(=S)N1CCC(C(=O)c2ccc(C)cc2)CC1` stands -41.2%; under `COc1ccccc1N1CCN(C2CCCN(C(=O)CCc3cnccn3)C2)CC1` (stereo not drawn), 11%; under `Cc1ccn2c(=O)nc(SCC(=O)N3CCC(Cc4ccccc4)CC3)nc2c1`, -55.6%.
Regarding `COc1ccc(-n2nc([N+](=O)[O-])c(=NCc3cccnc3)n2O)cc1`, the “hERG current change (%, negative = inhibition) at 10uM” value is given as -0.796%.
Under `COc1ccc(C2CC(=O)Nc3sc(=N)c4c(N)c(C#N)c(N)nc4c32)cc1OC` (stereo not drawn) stands 9.8%.
Under `CN(C)/C=C(/C(=O)c1ccccc1)n1cncn1` stands 21.2%; under `CCOC(=O)C(NCc1ccccc1OC)(NC(=O)CC)C(F)(F)F` (stereo not drawn), 7.33%; under `Cc1cc2c(ncn2C)c(NS(=O)(=O)c2ccc(Cl)cc2)c1C`, -1.18%.
Take `CC1=C(n2nnc3ccccc32)C(c2ccccc2)C(C#N)=C(N)O1` (stereo not drawn): the “hERG current change (%, negative = inhibition) at 10uM” value came to 1.42%.
The figure for `CCOC(=O)Cn1cc(/C=N/N2C(=O)C3C4C=CC(C4)C3C2=O)c2ccccc21` (stereo not drawn) is 4.2%; for `CCOCCCNC(=O)c1c(N)n(-c2ccc3c(c2)OCO3)c2nc3ccccc3nc12` it is 11.7%; for `Cc1cc(NC(=O)CSCC(=O)N(C)Cc2c(F)cccc2Cl)no1` it is -1.13%.
Under `Nc1nnc(CCOc2ccccc2Cl)s1` stands -0.794%; under `O=C(NNS(=O)(=O)c1ccc(F)cc1)c1ccc([N+](=O)[O-])cc1Cl`, 8.08%; under `COc1cccc(N2C(=O)CC(=O)NC2=O)c1`, -10.4%.
The figure for `Cc1cc(C)c2[nH]c3nc(SCC(=O)O)nnc3c2c1` is 20.3%; for `O=C(c1cc2cc(Cl)cc(Cl)c2oc1=O)N1CCOCC1` it is -14.5%; for `Cc1cc(C(=O)Nc2ccccc2C)on1` it is 17.6%.
Consider `NC(=O)N/N=C/c1ccc([N+](=O)[O-])o1`, for which the “hERG current change (%, negative = inhibition) at 10uM” value stood at 7.41%.
For `Cc1cccc(NC(=O)CN(C)S(=O)(=O)c2ccc3c(c2)n(C)c(=O)c(=O)n3C)c1C`, the “hERG current change (%, negative = inhibition) at 10uM” value is reported as -7.72%.
Under `COC(=O)c1ccccc1NC(=O)c1cc(-c2ccc(O)cc2)on1` stands 1.4%; under `Cc1cccc(OCc2nnc(SCC(=O)NCCc3ccccc3)o2)c1`, 5.59%; under `Nc1nnc(CSCc2cccc(Br)c2)s1`, 9.08%.
The figure for `NC1=NC2(CCCC2)N=C(Nc2ccccc2)N1` is 16.5%.
The figure for `COc1ccc(-n2nc(C)cc2N)cc1` is 18.6%; for `Cc1ccc(CNC(=O)c2sc3nc4c(c(C(F)(F)F)c3c2N)CCC4)cc1` it is -8.52%.
As to `O=C(CN1CCSCC1)c1c[nH]c2ccccc12`, the “hERG current change (%, negative = inhibition) at 10uM” value amounted to 4.87%.
Consider `CCN(C#N)c1nc(N(C)C)nc(N(C)C)n1`, for which the “hERG current change (%, negative = inhibition) at 10uM” value was -15.7%.
Regarding `CCn1c(SCC(=O)Nc2cc(C)on2)nc2c([nH]c3ccccc32)c1=O`, the “hERG current change (%, negative = inhibition) at 10uM” value is listed as 17.9%.
Under `Cc1c(OCC(=O)N2CCC(C(=O)O)CC2)ccc2c1oc(=O)c1ccccc12` stands 3.65%; under `COc1cc(C(=O)NS(=O)(=O)c2ccccc2C)ccc1Cc1cn(C)c2ccc(NC(=O)OC3CCCC3)cc12`, -8.23%; under `O=C(COc1ccc(S(=O)(=O)NC2CCCCC2)cc1)NC1CCCCC1`, -54.1%.
On to `CN(C)CCNC(=S)Nc1ccc(Br)cc1`, for which the “hERG current change (%, negative = inhibition) at 10uM” value is given as -6.8%.
Under `O=C(C1=C(O)/C(=C/c2ccc(O)cc2)CCC1)C(F)(F)F` stands 11.7%.
The figure for `CCOc1cccc(OCCOCCN(C)C)c1.O=C(O)C(=O)O` is 0.719%; for `O=C(NCc1ccc(C(F)(F)F)cc1)C1CC(c2cccc(F)c2)=NO1` (stereo not drawn) it is 13.3%; for `COc1ccccc1CNC(=O)c1csc(Cc2ccc(Cl)cc2)n1` it is -0.553%.
Under `O=C(CSc1nnnn1C1CCCC1)Nc1cccc(NC(=O)c2ccco2)c1` stands -55.9%.
On to `O=C(COc1ccc(F)cc1)Nc1ccccc1N1CCOCC1`, for which the “hERG current change (%, negative = inhibition) at 10uM” value is recorded as -6.81%.
The figure for `COC(=O)Cn1c2ccccc2c2nc3ccccc3nc21` is 23.3%; for `O=C(Cn1cnc2c(cnn2-c2ccc(F)cc2)c1=O)NCc1ccco1` it is -12.6%.
Under `C=CCn1cc(C(C)=O)c(=O)[nH]c1=O` stands 28.4%.
As for `Cc1ccccc1NC(=S)Nc1ccc2[nH]c(=O)[nH]c2c1`, the “hERG current change (%, negative = inhibition) at 10uM” value is 18.9%.
With `O=C(NCC1COc2ccccc2O1)c1cccs1` (stereo not drawn), the “hERG current change (%, negative = inhibition) at 10uM” value is given as -10.4%.
The figure for `O=C(CSc1ncnc2c1cnn2-c1ccc(Cl)cc1)NCc1ccc2c(c1)OCO2` is 13.7%; for `CC(OC(=O)c1ccc2ncsc2c1)C(=O)NCc1ccccc1` (stereo not drawn) it is -2.26%; for `Cc1nc(NC(=S)NC(=O)c2ccccc2)sc1C` it is 14%.
Under `Cc1cc(C)n(-c2nc3ccccc3c(=O)n2OCC#N)n1` stands 11.7%.
Under `CC1CCC(NC(=O)c2nc(Cn3ccc([N+](=O)[O-])n3)no2)CC1` (stereo not drawn) stands -23.7%.
As for `O=C(NCCN1CCC(Cc2ccccc2)CC1)C1CCCN(S(=O)(=O)c2cnc[nH]2)C1` (stereo not drawn), the “hERG current change (%, negative = inhibition) at 10uM” value was 4.42%.
Turning to `CC1NC(=O)NC1CCCCCC(=O)NCCc1ccccc1` (stereo not drawn), the “hERG current change (%, negative = inhibition) at 10uM” value was -0.365%.
The figure for `COC(=O)c1ccc(COC(=O)c2nn(C)c(=O)c3ccccc23)cc1` is 24.8%; for `CN(C(=O)CSc1nncn1-c1ccccc1)c1ccccc1` it is 13%.
Consider `COc1ccc(NC(=O)CSCC(=O)N2CCCc3ccccc32)cc1`, for which the “hERG current change (%, negative = inhibition) at 10uM” value is on record as -2.41%.
The figure for `O=C(NCCSCc1ccccc1)c1ccccc1` is -6.04%; for `O=C(CCCNC(=O)c1ccc(Cl)cc1)Nc1ccc(Br)cc1` it is 5.18%; for `COc1ccc(CC(=O)NC(=S)Nc2ccc(S(=O)(=O)NC(C)(C)C)cc2)cc1` it is 10.8%.
Regarding `N#Cc1ccccc1CSc1nc2ccc(NC(=O)c3ccccc3C(=O)O)cc2s1`, the “hERG current change (%, negative = inhibition) at 10uM” value is 29.2%.
The figure for `C[C@@H](C(=O)NCc1ccccc1)[C@H]1C[C@]1(C)[C@H](NC(=O)OCc1ccccc1)c1ccccc1` is -21.3%; for `COc1ccccc1-n1nnnc1SCc1cc2c(cc1Br)OCO2` it is -9.95%.
The figure for `Cc1cc(NC(=O)Nc2ccc(Cl)cc2)no1` is 3.37%; for `Cc1ccc(CNC(=O)c2c(-c3ccccc3Cl)noc2C)cc1` it is 6.1%.
The figure for `Cc1ccc(C(=O)N/N=C\c2ccc(-c3ccc(Cl)c(Cl)c3)o2)cn1` is -44.9%; for `CCC1S/C(=N/N=C/c2ccco2)N(Cc2ccc(F)cc2)C1=O` (stereo not drawn) it is 6.73%; for `Cc1ccc2c(CN3C(=O)NC(C)(c4ccc5c(c4)OCO5)C3=O)cc(=O)oc2c1` (stereo not drawn) it is -17.7%.
For the compound `Cc1ccc(NC(=O)[C@@H]2CCCN2S(=O)(=O)c2ccccc2F)cc1`, the “hERG current change (%, negative = inhibition) at 10uM” value was -2.5%.
Under `CN(CC(=O)Nc1ccc(F)cc1)C(=O)COc1ccc([N+](=O)[O-])cc1Cl` stands -5.39%; under `CCOC(=O)/C(=N\Nc1ccccc1Cl)N(C)C1CCCCC1`, 9.71%.
As for `CCN=C1SC(C(=O)Nc2cccc(Br)c2)CC(=O)N1CC` (stereo not drawn), the “hERG current change (%, negative = inhibition) at 10uM” value was 4.36%.
The figure for `COc1cccc(NC(=O)N2CCCC2C(=O)NC(C)C)c1` (stereo not drawn) is 13.7%; for `O=C(NS(=O)(=O)c1ccccc1)c1cccc(Br)c1` it is 18.9%; for `CCCCSc1nc2c(cnn2-c2ccc(C)c(C)c2)c(=O)[nH]1` it is 4.75%.
In the case of `CCC(NC(=S)NCc1ccccc1)C(=O)O` (stereo not drawn), the “hERG current change (%, negative = inhibition) at 10uM” value was 12.9%.
In the case of `CCC1CCCCN1C(=O)CSc1nnc(CNC(=O)COc2ccc(Cl)cc2)o1` (stereo not drawn), the “hERG current change (%, negative = inhibition) at 10uM” value was -32.5%.
The figure for `COC(=O)c1[nH]c2cccc(OC)c2c1NC(=O)CN1CCC(C(N)=O)(N2CCCCC2)CC1` is 0.138%.
Under `CN(C)CCNc1ncnc2oc(-c3ccccc3)c(-c3ccccc3)c12` stands -60.7%; under `Cc1ccc(-c2nnc(Nc3ccc(OCC(N)=O)cc3)c3ccccc23)cc1S(N)(=O)=O`, 6.5%.
`CCOC(=O)CC1Sc2ccccc2NC1=O` (stereo not drawn): the “hERG current change (%, negative = inhibition) at 10uM” value is reported as -8.37%.
As to `Cc1ccc(S(=O)(=O)CC(O)COc2ccccc2C#N)cc1` (stereo not drawn), the “hERG current change (%, negative = inhibition) at 10uM” value is recorded as 23.6%.
Under `CCOC(=O)C1C(=O)NC(N2CCc3ccccc32)=NC1c1ccccc1` (stereo not drawn) stands -0.74%.
The figure for `COc1ccc(N(C(=O)COc2cccc(C)c2)S(=O)(=O)c2ccc(C)cc2)cc1` is 2.07%.
For the compound `CN(C)c1ccc(NC(=O)c2sc(SCC(=O)Nc3nccs3)nc2N)cc1`, the “hERG current change (%, negative = inhibition) at 10uM” value was determined as 5.2%.
`CCCCN(Cc1ccccc1)C(=O)C1CCC(=O)N(CCc2ccccn2)C1` (stereo not drawn): the “hERG current change (%, negative = inhibition) at 10uM” value is -31.4%.
The figure for `CSc1ncccc1C(=O)NC(C)CCc1ccccc1` (stereo not drawn) is 11.6%.
Under `CC(C)=CCC/C(C)=C/C=N/NC(=O)c1cccc([N+](=O)[O-])c1` stands -14.2%; under `COc1cccc(CN2CC(C(=O)N3CCCCCCC3)CCC2=O)c1` (stereo not drawn), -2.24%.
`COC(CNC(=O)c1ccc2c(c1)nc(C)n2-c1cc(C)cc(C)c1)OC`: the “hERG current change (%, negative = inhibition) at 10uM” value is recorded as -24%.
